The list shows a part of the results.
target: T1, MBP-FoxP1dN (Mus musculus, UniProt P58462 326-579); assay: PD-seq (MBP pull-down with sequencing); 20 mM Tris-HCl pH 7.5, 100 mM NaCl, 1.5 mM MgCl2, 0.4 uM protein, 0.1 uM dsDNA library, 30 min, room temperature, amylose pull-down; high values mean tight binding; details: protein: recombinant; tags: His6-MBP; chain copies: 2; dsDNA, one strand shown
T1 sequence: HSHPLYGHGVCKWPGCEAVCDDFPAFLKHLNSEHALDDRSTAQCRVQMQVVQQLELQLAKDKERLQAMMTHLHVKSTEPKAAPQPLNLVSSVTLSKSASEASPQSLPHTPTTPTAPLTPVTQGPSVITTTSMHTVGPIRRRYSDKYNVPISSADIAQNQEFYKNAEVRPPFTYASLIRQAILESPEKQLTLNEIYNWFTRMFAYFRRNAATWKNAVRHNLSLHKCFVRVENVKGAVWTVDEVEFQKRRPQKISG
Procedure, shortened: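 Binding is reads-per-million enrichment of pull-down over input, with replicates pooled. It comes from 30 min room-temperature incubation in Tris pH 7.5 buffer with NaCl and MgCl2 of 0.4 µM His6-MBP-tagged, N-terminally truncated mouse FoxP3 or FoxP1 fragment from E. coli with 0.1 µM Klenow-filled degenerate double-stranded DNA library, followed by amylose resin capture, three washes and Illumina sequencing of the released DNA.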

Sequence | binding signal
GATGATTGTTCTCCCAGCTGATGAATTGCGCAGTTCGAGTAAACAAATTTTCCTAATCTTTCTGTTCAAGCGCCATCTAC | 1.08 RPM ratio (pull-down/input)
GATGATTGTTCTCCCAGCTGATGAATTGCGTATTTCGAGTAAACAAATTTTCCTAATCTTTCTGTTCAAGCGCCATCTAC | 1.38 RPM ratio (pull-down/input)
GATGATTGTTCTCCCAGCTGATGAATTAGGCGTATCGAGTAAACAAATTTTCCTAATCTTTCTGTTCAAGCGCCATCTAC | 0.998 RPM ratio (pull-down/input)
GATGATTGTTCTCCCAGCTGATGAATTGTCATTCTCGAGTAAACAAATTTTCCTAATCTTTCTGTTCAAGCGCCATCTAC | 1.11 RPM ratio (pull-down/input)
GATGATTGTTCTCCCAGCTGATGAATTTATACTCTCGAGTAAACAAATTTTCCTAATCTTTCTGTTCAAGCGCCATCTAC | 1.14 RPM ratio (pull-down/input)
GATGATTGTTCTCCCAGCTGATGAATTCGAGGTGTCGAGTAAACAAATTTTCCTAATCTTTCTGTTCAAGCGCCATCTAC | 0.85 RPM ratio (pull-down/input)
GATGATTGTTCTCCCAGCTGATGAATTTCTCACATCGAGTAAACAAATTTTCCTAATCTTTCTGTTCAAGCGCCATCTAC | 1.01 RPM ratio (pull-down/input)
GATGATTGTTCTCCCAGCTGATGAATTCGTATCATCGAGTAAACAAATTTTCCTAATCTTTCTGTTCAAGCGCCATCTAC | 1.1 RPM ratio (pull-down/input)
GATGATTGTTCTCCCAGCTGATGAATTTTTTGATTCGAGTAAACAAATTTTCCTAATCTTTCTGTTCAAGCGCCATCTAC | 1.02 RPM ratio (pull-down/input)
GATGATTGTTCTCCCAGCTGATGAATTGGAGGTTTCGAGTAAACAAATTTTCCTAATCTTTCTGTTCAAGCGCCATCTAC | 0.79 RPM ratio (pull-down/input)
GATGATTGTTCTCCCAGCTGATGAATTTAATTTATCGAGTAAACAAATTTTCCTAATCTTTCTGTTCAAGCGCCATCTAC | 1.23 RPM ratio (pull-down/input)
GATGATTGTTCTCCCAGCTGATGAATTCGTAATATCGAGTAAACAAATTTTCCTAATCTTTCTGTTCAAGCGCCATCTAC | 1.1 RPM ratio (pull-down/input)
GATGATTGTTCTCCCAGCTGATGAATTACGAATTTCGAGTAAACAAATTTTCCTAATCTTTCTGTTCAAGCGCCATCTAC | 1.09 RPM ratio (pull-down/input)
GATGATTGTTCTCCCAGCTGATGAATTTAATTGGTCGAGTAAACAAATTTTCCTAATCTTTCTGTTCAAGCGCCATCTAC | 1.03 RPM ratio (pull-down/input)
GATGATTGTTCTCCCAGCTGATGAATTCGTCCAGTCGAGTAAACAAATTTTCCTAATCTTTCTGTTCAAGCGCCATCTAC | 0.801 RPM ratio (pull-down/input)
GATGATTGTTCTCCCAGCTGATGAATTTACCGCATCGAGTAAACAAATTTTCCTAATCTTTCTGTTCAAGCGCCATCTAC | 1.41 RPM ratio (pull-down/input)
GATGATTGTTCTCCCAGCTGATGAATTGTGAAGTTCGAGTAAACAAATTTTCCTAATCTTTCTGTTCAAGCGCCATCTAC | 1.04 RPM ratio (pull-down/input)
GATGATTGTTCTCCCAGCTGATGAATTTTTACTCTCGAGTAAACAAATTTTCCTAATCTTTCTGTTCAAGCGCCATCTAC | 0.794 RPM ratio (pull-down/input)
GATGATTGTTCTCCCAGCTGATGAATTCGGACTTTCGAGTAAACAAATTTTCCTAATCTTTCTGTTCAAGCGCCATCTAC | 0.904 RPM ratio (pull-down/input)
GATGATTGTTCTCCCAGCTGATGAATTTGTTGTCTCGAGTAAACAAATTTTCCTAATCTTTCTGTTCAAGCGCCATCTAC | 2.42 RPM ratio (pull-down/input)
GATGATTGTTCTCCCAGCTGATGAATTGGGGAACTCGAGTAAACAAATTTTCCTAATCTTTCTGTTCAAGCGCCATCTAC | 0.756 RPM ratio (pull-down/input)

Sequence | binding signal
GATGATTGTTCTCCCAGCTGATGAATTCGTTTTGTCGAGTAAACAAATTTTCCTAATCTTTCTGTTCAAGCGCCATCTAC | 0.978 RPM ratio (pull-down/input)
GATGATTGTTCTCCCAGCTGATGAATTGCGACAATCGAGTAAACAAATTTTCCTAATCTTTCTGTTCAAGCGCCATCTAC | 1.41 RPM ratio (pull-down/input)
GATGATTGTTCTCCCAGCTGATGAATTGCACAGCTCGAGTAAACAAATTTTCCTAATCTTTCTGTTCAAGCGCCATCTAC | 1.04 RPM ratio (pull-down/input)
GATGATTGTTCTCCCAGCTGATGAATTTATGTTTTCGAGTAAACAAATTTTCCTAATCTTTCTGTTCAAGCGCCATCTAC | 2.76 RPM ratio (pull-down/input)
GATGATTGTTCTCCCAGCTGATGAATTCATTCGATCGAGTAAACAAATTTTCCTAATCTTTCTGTTCAAGCGCCATCTAC | 0.894 RPM ratio (pull-down/input)
GATGATTGTTCTCCCAGCTGATGAATTCTGTTTGTCGAGTAAACAAATTTTCCTAATCTTTCTGTTCAAGCGCCATCTAC | 2.36 RPM ratio (pull-down/input)
GATGATTGTTCTCCCAGCTGATGAATTTCCGCCCTCGAGTAAACAAATTTTCCTAATCTTTCTGTTCAAGCGCCATCTAC | 0.812 RPM ratio (pull-down/input)
GATGATTGTTCTCCCAGCTGATGAATTGTTAGCTTCGAGTAAACAAATTTTCCTAATCTTTCTGTTCAAGCGCCATCTAC | 1.18 RPM ratio (pull-down/input)
GATGATTGTTCTCCCAGCTGATGAATTTTCTATGTCGAGTAAACAAATTTTCCTAATCTTTCTGTTCAAGCGCCATCTAC | 0.967 RPM ratio (pull-down/input)
GATGATTGTTCTCCCAGCTGATGAATTCACCTCGTCGAGTAAACAAATTTTCCTAATCTTTCTGTTCAAGCGCCATCTAC | 0.754 RPM ratio (pull-down/input)
GATGATTGTTCTCCCAGCTGATGAATTATGCCAGTCGAGTAAACAAATTTTCCTAATCTTTCTGTTCAAGCGCCATCTAC | 0.982 RPM ratio (pull-down/input)
GATGATTGTTCTCCCAGCTGATGAATTCCTCACTTCGAGTAAACAAATTTTCCTAATCTTTCTGTTCAAGCGCCATCTAC | 0.836 RPM ratio (pull-down/input)
GATGATTGTTCTCCCAGCTGATGAATTATTGCGGTCGAGTAAACAAATTTTCCTAATCTTTCTGTTCAAGCGCCATCTAC | 1.08 RPM ratio (pull-down/input)
GATGATTGTTCTCCCAGCTGATGAATTGTCAACATCGAGTAAACAAATTTTCCTAATCTTTCTGTTCAAGCGCCATCTAC | 2.76 RPM ratio (pull-down/input)
GATGATTGTTCTCCCAGCTGATGAATTGGTTCCATCGAGTAAACAAATTTTCCTAATCTTTCTGTTCAAGCGCCATCTAC | 0.944 RPM ratio (pull-down/input)
GATGATTGTTCTCCCAGCTGATGAATTCTAATCTTCGAGTAAACAAATTTTCCTAATCTTTCTGTTCAAGCGCCATCTAC | 0.849 RPM ratio (pull-down/input)
GATGATTGTTCTCCCAGCTGATGAATTGGAATTCTCGAGTAAACAAATTTTCCTAATCTTTCTGTTCAAGCGCCATCTAC | 0.865 RPM ratio (pull-down/input)
GATGATTGTTCTCCCAGCTGATGAATTTCGTACGTCGAGTAAACAAATTTTCCTAATCTTTCTGTTCAAGCGCCATCTAC | 0.915 RPM ratio (pull-down/input)
GATGATTGTTCTCCCAGCTGATGAATTCATTCCGTCGAGTAAACAAATTTTCCTAATCTTTCTGTTCAAGCGCCATCTAC | 0.844 RPM ratio (pull-down/input)
GATGATTGTTCTCCCAGCTGATGAATTCTGGGTGTCGAGTAAACAAATTTTCCTAATCTTTCTGTTCAAGCGCCATCTAC | 0.785 RPM ratio (pull-down/input)
GATGATTGTTCTCCCAGCTGATGAATTCCCAACCTCGAGTAAACAAATTTTCCTAATCTTTCTGTTCAAGCGCCATCTAC | 0.775 RPM ratio (pull-down/input)

Sequence | binding signal
GATGATTGTTCTCCCAGCTGATGAATTTATTATTTCGAGTAAACAAATTTTCCTAATCTTTCTGTTCAAGCGCCATCTAC | 1.6 RPM ratio (pull-down/input)
GATGATTGTTCTCCCAGCTGATGAATTACGTAGATCGAGTAAACAAATTTTCCTAATCTTTCTGTTCAAGCGCCATCTAC | 1.05 RPM ratio (pull-down/input)
GATGATTGTTCTCCCAGCTGATGAATTTAACCGGTCGAGTAAACAAATTTTCCTAATCTTTCTGTTCAAGCGCCATCTAC | 0.765 RPM ratio (pull-down/input)
GATGATTGTTCTCCCAGCTGATGAATTAGAAGACTCGAGTAAACAAATTTTCCTAATCTTTCTGTTCAAGCGCCATCTAC | 0.894 RPM ratio (pull-down/input)
GATGATTGTTCTCCCAGCTGATGAATTCATGCCATCGAGTAAACAAATTTTCCTAATCTTTCTGTTCAAGCGCCATCTAC | 0.991 RPM ratio (pull-down/input)
GATGATTGTTCTCCCAGCTGATGAATTCCGGCTATCGAGTAAACAAATTTTCCTAATCTTTCTGTTCAAGCGCCATCTAC | 0.843 RPM ratio (pull-down/input)
GATGATTGTTCTCCCAGCTGATGAATTAAACTAATCGAGTAAACAAATTTTCCTAATCTTTCTGTTCAAGCGCCATCTAC | 1.09 RPM ratio (pull-down/input)
GATGATTGTTCTCCCAGCTGATGAATTACTCCAATCGAGTAAACAAATTTTCCTAATCTTTCTGTTCAAGCGCCATCTAC | 1.1 RPM ratio (pull-down/input)
GATGATTGTTCTCCCAGCTGATGAATTGATCTATTCGAGTAAACAAATTTTCCTAATCTTTCTGTTCAAGCGCCATCTAC | 1.15 RPM ratio (pull-down/input)
GATGATTGTTCTCCCAGCTGATGAATTACACCTCTCGAGTAAACAAATTTTCCTAATCTTTCTGTTCAAGCGCCATCTAC | 1.02 RPM ratio (pull-down/input)
GATGATTGTTCTCCCAGCTGATGAATTCGTGGCGTCGAGTAAACAAATTTTCCTAATCTTTCTGTTCAAGCGCCATCTAC | 0.862 RPM ratio (pull-down/input)
GATGATTGTTCTCCCAGCTGATGAATTCACCATCTCGAGTAAACAAATTTTCCTAATCTTTCTGTTCAAGCGCCATCTAC | 0.846 RPM ratio (pull-down/input)
GATGATTGTTCTCCCAGCTGATGAATTAGGTTGCTCGAGTAAACAAATTTTCCTAATCTTTCTGTTCAAGCGCCATCTAC | 1.03 RPM ratio (pull-down/input)
GATGATTGTTCTCCCAGCTGATGAATTAGAACGCTCGAGTAAACAAATTTTCCTAATCTTTCTGTTCAAGCGCCATCTAC | 0.916 RPM ratio (pull-down/input)
GATGATTGTTCTCCCAGCTGATGAATTGGAAAAGTCGAGTAAACAAATTTTCCTAATCTTTCTGTTCAAGCGCCATCTAC | 0.844 RPM ratio (pull-down/input)
GATGATTGTTCTCCCAGCTGATGAATTGACCAACTCGAGTAAACAAATTTTCCTAATCTTTCTGTTCAAGCGCCATCTAC | 0.971 RPM ratio (pull-down/input)
GATGATTGTTCTCCCAGCTGATGAATTCGATATCTCGAGTAAACAAATTTTCCTAATCTTTCTGTTCAAGCGCCATCTAC | 0.765 RPM ratio (pull-down/input)
GATGATTGTTCTCCCAGCTGATGAATTGCACCAGTCGAGTAAACAAATTTTCCTAATCTTTCTGTTCAAGCGCCATCTAC | 1.07 RPM ratio (pull-down/input)
GATGATTGTTCTCCCAGCTGATGAATTATGGTCATCGAGTAAACAAATTTTCCTAATCTTTCTGTTCAAGCGCCATCTAC | 1.04 RPM ratio (pull-down/input)
GATGATTGTTCTCCCAGCTGATGAATTGAACGTCTCGAGTAAACAAATTTTCCTAATCTTTCTGTTCAAGCGCCATCTAC | 0.787 RPM ratio (pull-down/input)
GATGATTGTTCTCCCAGCTGATGAATTAGCTGTGTCGAGTAAACAAATTTTCCTAATCTTTCTGTTCAAGCGCCATCTAC | 1 RPM ratio (pull-down/input)

— article PMC12820563, “FoxP3 forms a head-to-head dimer in vivo and stabilizes its multimerization on adjacent microsatellites”
